Source: PubChem BioAssay AID686978 (National Center for Advancing Translational Sciences (NCATS), 2013)
Hit rate of the full screen: of about 420,000 compounds, about 64,000 (15%) were called active. This list was built around the results that the source calls inconclusive (neither active nor inactive); the mix of calls is not that of the screen. The call rests on the fitted dose curve; in most records, active means well fitted inhibition curve with a large enough effect; inconclusive means small, poorly fitted or top-dose-only effect; inactive means flat fitted curve, though single readings scatter. Potencies of inconclusive entries are left out as doubtful fits.

Test: qHTS for Inhibitors of human tyrosyl-DNA phosphodiesterase 1 (TDP1): qHTS in cells in absence of CPT; further: nearly all actives have a fitted effect of over 55% in size
Conditions: DT40 Tdp1-/- hTDP1 cells, no CPT, ATP luminescence, 48 h; activity change, negative = growth inhibition: at 46.2 µM (top of the series) unless noted
In short: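 Seeded 400 DT40-hTDP1 cells/well (vehicle DMSO, no 20 nM CPT); pinned compounds; ≥48 hr at 37 °C; CellTiter-Glo luminescence as viability measure.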
On the % scale 0 is the no-effect control and ±100 the full control effect; potency means the concentration at half of the fitted maximal effect; tags describe the fitted curve by direction and shape.

SMILES	Potency	activity change, negative = growth inhibition
Cc1ccc(C)c(CSc2ccc3nnc(CCNS(=O)(=O)c4ccccc4)n3n2)c1	inconclusive [inhibitor, single point]	
COc1ccc(CCN2C(=O)CC(N3CCN(C/C=C/c4ccccc4)CC3)C2=O)cc1OC (centres undefined)	inconclusive [inhibitor, single point]	
O=C(c1cccc(S(=O)(=O)N2CCCCC2)c1)N1CCN(Cc2ccccc2)CC1	inconclusive [inhibitor, single point]	
C[C@H]1CCCCO[C@H](CN(C)Cc2ccccc2)[C@@H](C)CN([C@@H](C)CO)C(=O)c2cc(NC(=O)CCC(F)(F)F)ccc2O1	inconclusive [inhibitor, single point]	
O=C1N/C(=N/N=C/c2ccco2)SC1Cc1ccccc1 (centres undefined)	inconclusive [inhibitor, partial curve]	
CCn1c(=O)c2ccccc2n(CC(=O)N2CCCc3ccccc32)c1=O	inconclusive [inhibitor, single point]	
O=C1CCN(Cc2ccccc2)S(=O)(=O)c2ccccc21	inconclusive [inhibitor, single point]	
Cc1noc(C)c1-c1ccc2ncnc(NC3CC3)c2c1	active: 20.6 µM	
CCCCN(C)Cc1c(C)[nH]c2ccccc2c1=O	inconclusive [inhibitor, full curve]	
Cc1ccc(C(C)NC(=O)/C(C#N)=C\c2c(C)[nH]c3ccccc23)cc1 (centres undefined)		inactive: -21.5%
C=C1C=C(C(F)F)n2ncc(C(=O)NCc3ccccc3OC)c2N1	inconclusive [inhibitor, single point]	
COc1cc(-c2nnc(COC(=O)c3cc(C)nc4ccc(C)cc34)o2)cc(OC)c1OC	inconclusive [inhibitor, partial curve]	
CC(/C=N\NC(=O)c1cc(C)oc1C)=C\c1ccccc1	inconclusive [inhibitor, partial curve, poor fit]	
O=C(NC1CCOC1=O)OCc1ccccc1 (centres undefined)		inconclusive: -34.1% [inhibitor]
COc1ccc(-n2nc(C(=O)NCC(=O)NCCCN3CCC(C)CC3)c3ccccc3c2=O)cc1Cl	inconclusive [inhibitor, partial curve]	
CCCCC(=O)Nc1ccc(C2C(=O)c3ccccc3C2=O)cc1	inconclusive [inhibitor, single point]	
Cc1ccc(C)c(SCC(=O)NC(=O)NCc2ccccc2)c1		inactive: -18.6%
O=C(Cn1nc(-c2ccccc2)nc(Cc2ccccc2)c1=O)Nc1ccccc1		inactive: -20.2%
O=C(NCc1ccco1)C(c1ccncc1)N(C(=O)Cn1nnc2ccccc21)c1ccccc1 (centres undefined)		inactive: -4.11%
O=C(N/N=C1/CC2CCC1C2)c1cc2ccccc2cc1O (centres undefined)	active: 20.6 µM	
COc1cc(/C=C/C(=O)OCC(=O)Nc2cccc(Oc3ccccc3)c2)ccc1O	inconclusive [inhibitor, partial curve]	
CC1(C(=O)NS(=O)(=O)C2CC2)CCCN(C(=O)c2ccccc2C(F)(F)F)C1 (centres undefined)	active: 5.8 µM	
CC[C@]12c3[nH]c4ccccc4c3CCN1C(=O)C(CC(=O)NCC13CC4CC(CC(C4)C1)C3)C[C@@H]2C(=O)N1CCN(C(=O)C2CC2)CC1 (some centres undefined)	active: 5.17 µM	

SMILES	Potency	activity change, negative = growth inhibition
CCC(C(=O)Nc1nc(C)cs1)c1ccccc1 (centres undefined)	inconclusive [inhibitor, single point]	
O=C(N/N=C1/CC2C=CCC12)c1ccco1 (centres undefined)	inconclusive [inhibitor, single point]	
COc1cc(NC(=S)NCc2cccnc2)c(OC)cc1Cl		inactive: -8.54%
Cc1cccc(C)c1NC(=O)C1C(c2ccccc2)=Nc2ccccc2N1C(=O)c1cnccn1 (centres undefined)	inconclusive [inhibitor, partial curve]	
CCOC(=O)CC1C(=O)NC2CCCCC2N1C(=O)Nc1ccc(Cl)cc1 (centres undefined)	inconclusive [inhibitor, full curve, poor fit]	
CSc1ccccc1NC(=O)Nc1cccc(Cl)c1C	inconclusive [inhibitor, single point]	
CCCCC(=O)OC1=C(C(C)=O)N(Cc2ccccc2)S(=O)(=O)c2ccccc21	inconclusive [inhibitor, single point]	
Cc1nn(-c2ccccc2)c(Cl)c1C1C(C#N)=C(N)Oc2c1c(C)nn2-c1ccccc1 (centres undefined)	inconclusive [inhibitor, partial curve]	
CCCC(=O)N1CCN(c2ccc(NC(=O)c3ccc(Br)o3)cc2)CC1		inactive: -17%
Cc1c([N+](=O)[O-])cc(C(=O)Oc2ccc(Br)cc2C(=S)N2CCCCC2)cc1[N+](=O)[O-]	inconclusive [inhibitor, single point]	
CCOC(=O)c1sc2nc(SCC(=O)NCc3ccco3)n(Cc3ccccc3)c(=O)c2c1C	inconclusive [inhibitor, single point]	
Cc1cc(C)n2c(Nc3c(C)cccc3C)c(CC(C)C)nc2n1	active: 23.1 µM	
Cc1cccc(NC(NC(=O)c2ccccc2[N+](=O)[O-])C(Cl)(Cl)Cl)c1 (centres undefined)	inconclusive [inhibitor, single point]	
O=C(NC(=S)N1CCN(c2ccc(F)cc2)CC1)c1ccccc1	active: 20.6 µM	
O=C(NCC(c1cccs1)N1CCOCC1)c1ccc(Cl)c(S(=O)(=O)N2CCOCC2)c1 (centres undefined)		inactive: -25.4%
Cc1cc(/C=C(/C#N)c2cccc(F)c2)c(C)n1-c1cccnc1	inconclusive [inhibitor, single point]	
O=C(CSc1nnc(-c2cccc(S(=O)(=O)N3CCCC3)c2)n1-c1ccccc1)Nc1cccc(C(=O)O)c1		inactive: 17.6%
O=C(Cc1ccc(Br)cc1)c1ccc(O)cc1O	inconclusive [inhibitor, single point]	
COc1ccc(CCNC(=O)Cn2c(=O)cnc3ccccc32)cc1	active: 23.1 µM	
NC(=O)C(Cc1ccccc1)NC(=O)C12CC3CC(CC(C3)C1)C2 (centres undefined)		inactive: -27.5%
COc1cccc(-c2nc3nc(C)cc(C)n3c2NC2CCCC2)c1	inconclusive [inhibitor, single point]	
COc1ccc(-c2oc3ccc(N4CCOCC4)cc3c2/C=C/c2ccc(OC)c(OC)c2)cc1	inconclusive [inhibitor, single point]	
CCOc1ccc(N=c2scc(-c3ccc(OC)cc3)n2CCO)cc1	inconclusive [inhibitor, partial curve]	

SMILES	Potency	activity change, negative = growth inhibition
COc1cc(/C=N/NC(=O)c2cccc(S(=O)(=O)N3CCCC3)c2)cc(OC)c1O	inconclusive [inhibitor, single point]	
CCn1c(C(=O)NCc2ccc(OC)cc2)cc2sc(Cl)cc21	inconclusive [inhibitor, single point]	
CCNC(=O)c1c(NC(=O)Cc2coc3cc(C)ccc23)sc2c1CCCC2	active: 18.4 µM	
CCN(CC(=O)Nc1cc(Cl)ccc1C)C(=O)CN1C(=O)NC2(CCCC2)C1=O		inactive: -2.6%
O=C(Nn1c(-c2ccc(Br)cc2)nc2ccccc2c1=O)c1ccncc1		inactive: -9.06%
CCOC(=O)C1=CCN(S(=O)(=O)c2ccccc2Br)C1c1ccccc1 (centres undefined)	inconclusive [inhibitor, single point]	
COc1ccc(C(=O)Nc2ccc(Cl)c(S(=O)(=O)N3CCOCC3)c2)cc1	inconclusive [inhibitor, single point]	
O=C(CCSCc1ccccc1Cl)NC1CCCCC1		inactive: -5.19%
O=C(CSc1nnc(-c2ccccc2)o1)c1nnc(-c2ccccc2)o1	inconclusive [inhibitor, single point]	
O=C1NCCCC1C(=O)N/N=C/c1cc([N+](=O)[O-])ccc1O (centres undefined)	inconclusive [inhibitor, single point]	
CN(C)/C=C/C(=O)c1cnc(-c2ccccc2Cl)s1	inconclusive [inhibitor, single point]	
Cc1onc(-c2ccccc2)c1NC(=O)N(CCC#N)Cc1ccccc1		inactive: -17.6%
CCc1ccc(-c2cc(C)no2)cc1S(=O)(=O)NCCN1CCC(C)CC1	inconclusive [inhibitor, single point]	
CCN(CC(=O)Nc1cccc(OC)c1)CC(=O)Nc1cccc2ccccc12	inconclusive [inhibitor, single point]	
COc1ccc(OCCNC(=O)c2cccc(Oc3ccc(C(F)(F)F)cc3[N+](=O)[O-])c2)cc1	inconclusive [inhibitor, partial curve]	
COc1ccc(NC(=S)N2CCC(Cc3ccccc3)CC2)cc1OC	inconclusive [inhibitor, partial curve]	
CC(Oc1ccc(Cl)cc1Cl)C(=O)Nc1ccncc1 (centres undefined)	active: 9.2 µM	
Cc1ccc(Nc2ncnc3onc(C)c23)cc1Cl	inconclusive [inhibitor, single point]	
CC(=O)N1N=C2c3ccccc3CCC2C1c1ccc(F)cc1 (centres undefined)	inconclusive [inhibitor, single point]	
COc1ccc(S(=O)(=O)Nc2ccc(F)cc2)c(C)c1C		inactive: -21.2%
CN(CCO)c1nc2c(c(=O)n(Cc3ccc(Cl)cc3)c(=O)n2C)n1C		inconclusive: -27.1% [inhibitor]
S=c1[nH]nc2nnc3ccccc3n12	inconclusive [inhibitor, single point]	
Cc1cc(NC(=O)COc2ccc(Cl)cc2Cl)n(-c2ccccc2)n1	inconclusive [inhibitor, full curve, poor fit]	
